Where two headings read alike, the source gives them in different places.
Assays:
Type in all cases: cell-based, rat
[1] = system: GLAST and GLT-1 glutamate transporters
Text: In order to characterize the subtype of transporter, tritiated glutamate uptake assays and immunocytochemistry were used.

[2] = system: oligodendrocytes; assay: oligodendroglial death in vitro after inhibition of glutamate transporters
Procedure: Cell cultures were prepared from 12 days-old rat optic nerve following standard protocols, which have been adapted and introduced into the laboratory as recently reported (Matute et al., 1997, Proc. Natl. Acad. Sci. USA 94: 8830-8835).

[3] = system: GLAST and GLT-1 glutamate transporters; assay: whole cell patch clamp recording of glutamate transporter currents in cultured oligodendrocytes; settings: oligodendrocytes, voltage clamp at −70 mV
Procedure: Electrophysiological recordings were carried out on 2 to 5 days-old cultures, following previously published protocols (Patneau et al., 1994, Neuron 12, 357-371). Cells were registered in a chamber which allows changing the composition of the extracellular medium by means of constant flow (0.5 to 1 ml/minute). Registering electrodes used were glass capillaries containing specific solutions compatible with cytoplasmic ionic concentrations. The study of the responses mediated by the glutamate transporters was carried out using whole cell patch clamp.

Compound: CC(C)[C@H]1CN[C@H](C(=O)O)[C@H]1CC(=O)O [DHK, dihydrokainate]
- effect on sodium-dependent uptake of glutamate in oligodendrocytes ([1]; tritiated glutamate uptake): only partially inhibited

Compound: CNC(=O)N1N=C(c2ccc(N)cc2)c2cc3c(cc2C[C@H]1C)OCO3 [LY303070]
- effect on TBOA-induced oligodendroglial death ([2]; LY303070 50 μM): reduced to a large extent

Compound: N[C@@H](CCC(=O)O)C(=O)O [glutamate]
- permanent, non-desensitizing current, mean amplitude [3]: 16.54±1.66 pA

Compound: N[C@H](C(=O)O)[C@H](OCc1ccccc1)C(=O)O (racemic) [TBOA, DL-threo-β-benzyloxyaspartate]
- EC50 ([2]; TBOA 100 nM to 1 mM, 24 h, alone): 10.9 µM
- chromatin condensation and caspase-3 activation in dying oligodendrocytes ([2]; TBOA alone or in the presence of CTZ (100 μM) or ConA (10 μM)): produces chromatin condensation and activation of caspase-3
- EC50 ([2]; TBOA in the presence of cyclothiazide (CTZ; 100 μM)): 5.5 µM
- effect on sodium-dependent uptake of glutamate in oligodendrocytes [1]: totally inhibited

Compound: concanavalin A
- effect on TBOA-induced oligodendroglial death ([2]; ConA 10 μM): enhanced

Compound: N[C@@H](CC(=O)O)C(=O)O [aspartate]
- permanent, non-desensitizing current, mean amplitude [3]: 14.26±2.41 pA

Compound: N#Cc1cc2c(cc1[N+](=O)[O-])=NC(=O)C(=O)N=2 [CNQX, 6-cyano-7-nitroquinoxalin-2,3-dione]
- effect on TBOA-induced oligodendroglial death ([2]; CNQX 30 μM): blocked

Reference: patent US7879568B2, “Method for the diagnosis and prognosis of demyelinating diseases” (Universidad Del Pais Vasco, priority 2005, dated 2011)
